According to PMC6919601, “Identification of Plasmodium dipeptidyl aminopeptidase allosteric inhibitors by high throughput screening” (PLoS ONE, 2019):
Where “and” joins values, the source holds several entries; their conditions need not be identical. Identical values can stand only once. Hit rate of the full screen: of about 110,000 compounds, about 230 (0.21%) showed an effect of 50% or more. The list shows a part of the results.

biological target: DPAP1 (Plasmodium falciparum, UniProt Q8IIJ9); assay: primary screen, percent inhibition; read by cleavage of a fluorogenic dipeptide substrate; higher = more effect of the substance; set-up: species or system P. falciparum D10 trophozoite lysates; single well
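Note: 30 min substrate incubation versus DMSO and 10 µM JCP410 controls.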

Chain of DPAP1 (Q8IIJ9 whole entry, looked up): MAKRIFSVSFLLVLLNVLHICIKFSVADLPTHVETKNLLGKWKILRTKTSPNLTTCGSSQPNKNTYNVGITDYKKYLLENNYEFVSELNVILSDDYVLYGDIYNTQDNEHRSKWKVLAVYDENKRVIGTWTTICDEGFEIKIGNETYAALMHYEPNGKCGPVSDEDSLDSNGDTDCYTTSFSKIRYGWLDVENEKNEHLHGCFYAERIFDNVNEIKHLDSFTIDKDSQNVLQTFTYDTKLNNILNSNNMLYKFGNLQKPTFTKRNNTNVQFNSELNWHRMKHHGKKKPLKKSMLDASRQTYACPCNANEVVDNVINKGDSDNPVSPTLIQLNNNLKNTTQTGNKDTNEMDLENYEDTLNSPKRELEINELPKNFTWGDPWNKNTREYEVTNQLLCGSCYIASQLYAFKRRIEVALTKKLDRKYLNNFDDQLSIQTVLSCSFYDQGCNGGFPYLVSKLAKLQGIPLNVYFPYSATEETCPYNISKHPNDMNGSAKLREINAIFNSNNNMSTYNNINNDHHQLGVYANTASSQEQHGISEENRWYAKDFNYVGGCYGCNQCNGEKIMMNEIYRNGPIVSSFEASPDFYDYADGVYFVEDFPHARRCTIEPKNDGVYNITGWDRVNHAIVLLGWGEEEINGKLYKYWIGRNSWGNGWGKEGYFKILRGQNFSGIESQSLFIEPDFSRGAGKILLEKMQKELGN

SMILES | % Inhibition @ 10 uM
O=C(Cc1ccc(Cl)cc1)Nc1ccc(S(=O)(=O)Nc2ccc(Cl)cc2)cc1 | 7.76%
Cc1ccc(Cl)cc1N(CC(=O)Nc1ccc2c(c1)OCO2)S(=O)(=O)c1ccccc1 | -5.88%
COc1cccc(C2C(C(C)=O)=C(O)C(=O)N2c2ccc(C)c(Br)c2)c1 (stereo not shown) | 3.53%
CCOc1ccc(N(CC(=O)Nc2c(C)cccc2C)S(=O)(=O)c2ccccc2)cc1 | -3.75%
c1ccc(N2CCN(Cc3c[nH]c4ccccc34)CC2)nc1 | -0.405%
O=C(Nc1cccc2nsnc12)c1cc(Cl)ccc1NS(=O)(=O)c1cccc2nsnc12 | 4.88%
COc1ccc(/N=c2\sc(C)c(-c3ccc(OC)cc3)n2CCO)cc1 | 2.22%
CC(C)C[C@H](NC(=O)[C@@H]1CCCN1C#N)C(=O)OCc1ccccc1 | -3.97%
Cc1ccccc1C1C(CN2CCOCC2)=C(c2ccccc2)Oc2ccccc21 (stereo not shown) | 1.54%
Cc1nc2nc(SCC(=O)NC3CCCC3)nn2c(C)c1Cc1cccc(Cl)c1 | 0.457%
CN(C)CCN(C)Cc1cccc(C(F)(F)F)c1 | -0.856%
CCCCc1ccc(-c2nc(N)sc2C)cc1 | -0.132%
COc1cc(C2C(C#N)=C(N)N(c3ccccc3)C3=C2C(=O)CCC3)cc(OC)c1OC (stereo not shown) | -1.08%
CCOC(=O)C1=C(C)NC(=O)CC1c1ccccc1OC (stereo not shown) | 2.92%
CC(C)Oc1ccc(C(=O)Nc2ccc(CN3CCOCC3)cc2)cc1 | 2.51% and -1.88%
Cl/C(=C\c1ccccc1)CN1CCOCC1 | 2.91%
O=C1CSC(c2ccc(F)cc2)N1c1ccccc1 (stereo not shown) | 0.64%
c1cncc(-c2nc3c4ccccc4nc(NCCc4c[nH]c5ccccc45)n3n2)c1 | -6.07%
COc1ccc(CCNS(=O)(=O)c2ccc(-n3cnnn3)c(OC)c2)cc1OC | -2.84%
O=C(C1=C(O)C(=O)N(c2nccs2)C1c1cccs1)c1cccs1 (stereo not shown) | -0.0619%
Cc1ccc(-c2nn3c(C)cc(C)nc3c2C#N)cc1 | 4.3%
COC(=O)c1ccc(C(=O)NCCCCO)cc1 | -0.615%
COc1ccccc1NC(=O)C1CC(=O)N(C)/C(=N/c2ccc(C)c(C)c2)S1 (stereo not shown) | -1.95%
COc1ccc(C)cc1NC(=O)c1ccccc1Br | 4.22%
O=C(NCc1ccco1)c1ccc(Br)o1 | 0.986%

SMILES | % Inhibition @ 10 uM
CC(=O)c1cccc(NC(=O)c2ccc3c(c2)C(=O)N(c2ccccn2)C3=O)c1 | 3.01%
COc1cc(SC)ccc1C(=O)NC1CCCCCCC1 | -3.9%
Cc1ccc(/C=c2\sc3nc(-c4ccccc4Br)nn3c2=O)o1 | 2.24%
O=C(O)C(c1ccccc1)C(O)c1ccccc1 (stereo not shown) | -1.61%
CC1CCCC(C)N1C(=O)c1ccc([N+](=O)[O-])cc1 (stereo not shown) | 4.66%
CCOc1ccccc1N1CCN(Cc2cc(C)ccc2C)CC1 | -0.0404%
CCN(CC)CCNc1nc2cc(OC)c(OC)cc2c2nc(-c3ccccc3)nn12 | 0.981%
O=C1CC(CNC(=O)N2CCN(C(c3ccccc3)c3ccccc3)CC2)CN1Cc1ccccc1 (stereo not shown) | 2.98%
COC(=O)C1=CN(CC2CCCO2)C=C(C(=O)OC)C1c1ccccc1Cl (stereo not shown) | -5.28%
COc1cc(OC)cc(-n2nnc(-c3nc(-c4ccccc4)no3)c2N)c1 | -1.35%
CC(C)(C)c1ccc(OCCCCn2ccnc2)cc1 | 1.83%
COc1cccc2sc(N(CCCN(C)C)C(=O)CN3C(=O)c4ccccc4C3=O)nc12 | 3.24%
COc1ccc2sc(C(=O)O)c(Br)c2c1 | 6.18%
Cc1ccc(CNCc2c(C(=O)O)n(Cc3ccccc3)c3ccccc23)cc1 | 1.93%
Cc1ccc(-n2c(C)cc(/C=C3/C(=N)N4C(=NC3=O)SN=C4S(C)(=O)=O)c2C)c(C)c1 | 3.48%
C=CCOc1ccc2c(C(F)(F)F)cc(=O)oc2c1 | -6.87%
O=C(Nc1cc(-c2cccc(Cl)c2)no1)C1CCCN(c2ncnc3c2nc2n3CCCCC2)C1 (stereo not shown) | 1.66%
Cc1nn(-c2ccccc2)c(-c2ccccc2)c1C(=O)O | -2.77%
N#CC(C(=O)NC1CCCCC1)=C1CCCCCC1 | 0.983%
Cc1cc(-c2ccccc2)n2ncc(C#N)c2n1 | 3.16%
COc1cc(C2CC(=O)Nc3c2ccc2ccccc32)c(OC)cc1Br (stereo not shown) | -2.85%
COc1cc(-c2noc(-c3cc4cc(Br)ccc4oc3=O)n2)cc(OC)c1OC | 7.99%
Cc1nn(Cc2nc(-c3ccc(C(F)(F)F)cc3)no2)c(C)c1Br | 4.57%
O=C(Nc1cccc(C(F)(F)F)c1)[C@@H]1C[C@@H]1c1ccccc1 | 3.54%
Cc1nc2c(c(C)c1CCC(=O)NCCCOC(C)C)c(=O)n(C)c(=O)n2C | -11%

SMILES | % Inhibition @ 10 uM
CCCCc1nn2cc(-c3ccc(C)c(C)c3)nc2s1 | -2.71%
COc1cccc2c1OC1(C)CC2/C(=C(O)\C=C\c2ccc(OC)c(OC)c2OC)C(=O)N1 (stereo not shown) | -6.57%
COc1cccc(-c2nc(SCC(=O)Nc3cccc(C(F)(F)F)c3)nc(O)c2C#N)c1 | 4.09%
O=C(c1ccccc1F)N1CCN(Cc2c[nH]c3ccccc23)CC1 | -9.24%
CC(C)C[C@H](NC(=O)c1ccc(NC(=O)c2ccncc2)cc1)C(=O)NCC#N | 11.4%
Cc1ccc(-c2nnn3c2nc(N2CCCCC2)c2ccccc23)cc1 | 0.44%
Clc1ccccc1OCCCN1CCCC1 | -2.34%
CCOC(=O)c1c(-c2ccc(OC)cc2)csc1/N=C/C1C(=O)CC(C)(C)CC1=O | -1.33%
Cc1c(CNC2CCCC2)c(C(=O)O)c(C)n1Cc1ccccc1 | 4.53%
COc1ccc(CCNC(=O)C2CCN(c3nn4c(=O)cc(C)nc4s3)CC2)cc1OC | -5.63%
C=CCn1c(NC(=O)c2ccc(C)cc2)c(C#N)sc1=N | 2.25%
Cc1ccc(-c2nc(NC(=O)CCCC(=O)O)sc2C)c(C)c1 | -2.77%
Cc1ccc(N2C(=O)CC(N3CCOCC3)C2=O)cc1 (stereo not shown) | 2.36%
Cc1ccc2ncc3c(-c4ccccc4)[nH]nc3c2c1 | -13.5%
O=C(N/C(=C/C=C/c1ccccc1)C(=O)N1CCOCC1)c1ccccc1 | -4.67%
CC(=O)c1ccc(Oc2cc(-c3ccccc3)nc(-c3ccccc3)n2)cc1 | -3.27%
COCCn1c(C)cc(/C=C2/NC(=O)N(c3ccc(Cl)cc3)C2=O)c1C | 3.32%
COc1ccc(C2(N3CCC4(CC3)OCCO4)C(=O)c3ccccc3C2=O)cc1 | 3.37%
Cn1c2c(c(=O)n(C)c1=O)C(c1ccc(O)c(O)c1)C1C(=O)c3ccccc3C1=N2 (stereo not shown) | -1.37%
O=C(Nc1cccc2nonc12)C(F)(F)F | 0.0345%
O=C(NCCCn1ccnc1)Nc1cccc(Cl)c1 | -5.14%
CCN1CCC(N2CCN(c3ccccc3)CC2)CC1 | 1.83%
Cc1cc(C(=O)N2CCCC2)c2c(C)nn(-c3ccccc3)c2n1 | 2.12%
Cc1cccc(OCCCN2CCCCC2)c1C | -3.03%
COc1ccc(C2=NN(c3ccc(Cl)cc3)C(c3cccs3)C2)cc1 (stereo not shown) | 5.06%

SMILES | % Inhibition @ 10 uM
Cc1ccc(NC(=O)c2ccccc2Cl)c([N+](=O)[O-])c1 | 1.91%
CC1(C)CC(=O)C2=C(C1)N(Cc1ccccc1)CN(Cc1ccco1)C2 | 2.31%
C=CCO/C(O)=C1\C(C)=Nc2nnnn2C1c1cc(Br)ccc1OC (stereo not shown) | 6.36%
CCC1CCc2c(sc(NC(=O)C3CCC3)c2C#N)C1 (stereo not shown) | -2.8%
COc1ccccc1N1CCN(S(=O)(=O)c2ccc(Cl)cc2)CC1 | -1.38%
CCOC(=O)c1c(C)n(-c2ccccc2C)c2ccc(OC)cc12 | -2.13%
C=CCN1C(=O)S/C(=C\c2ccc(N3CCOCC3)cc2C)C1=O | -1.51%
CC(C)c1cc(C(C)C)c(S(=O)(=O)NCCO)c(C(C)C)c1 | 6.6%
O=C(Cc1cccc2ccccc12)N1CCN(S(=O)(=O)c2ccc(F)cc2)CC1 | -3.21%
Cc1ccc(-c2cc(-c3ccc(Cl)cc3)[nH]n2)c(O)c1 | -1.82%
O=C(NCc1ccco1)Nc1ccc(Cl)cc1 | -5.51%
N#Cc1c(NC(=O)CCn2cnc3ccccc3c2=O)sc2c1CCCC2 | 4.33%
C=CCNC(=O)c1ccccc1NC(=O)c1ccc(CN2CCOCC2)cc1 | -2.67%
CCOc1ccc(N(CC(=O)Nc2ccccc2C(F)(F)F)S(C)(=O)=O)cc1 | 4.57%
O=C(C1=C(O)C(=O)N(c2ccccn2)C1c1cccnc1)c1ccc(Cl)cc1 (stereo not shown) | 0.408%
O=C(c1ccc(F)c(S(=O)(=O)N2CCOCC2)c1)N1c2ccccc2Sc2ccccc21 | -3.14%
Oc1cc(-c2ccc(Cl)cc2)cc(-c2ccccc2)n1 | 0.51%
COc1ccc(/C=N/n2cnnc2S)cc1 | 33.7%
O=C(O)/C=C/C(=O)Nc1ccc2nn(-c3ccccc3)nc2c1 | -3.92%
CCOc1ccc2c(c1)CN(Cc1ccc(Cl)cc1)CO2 | 1.62%
CN1C2=NCCCN2c2ccccc21 | -1.54%
CC1CCCN(Cc2nc3c(c(=O)n(C)c(=O)n3C)n2CCc2ccccc2)C1 (stereo not shown) | -3.23%
COc1ccc(C(=O)N2CCN(c3ccc(Cl)c(Cl)c3)CC2)cc1OC | -3.34%
CCOc1ccc(C2C3=C(CCCC3=O)N(CC(=O)O)C3=C2C(=O)CCC3)cc1 | 0.389%
N#CC1=C(N)Oc2c(cc(Cl)c3ccccc23)C1c1ccc(F)cc1 (stereo not shown) | 3.03%
